# The other results are listed elsewhere or left out.
# How the values were obtained:
# Experiment in all cases: glycan array binding signal (z-score within array); higher = stronger binding
# Settings in all cases: glycan notation: IUPAC condensed, linker removed
# [1] = target: Gal(b1-4)GlcNAc(b1-3)Gal(b1-4)GlcNAc(b1-2)Man(a1-3)[Gal(b1-4)GlcNAc(b1-3)Gal(b1-4)GlcNAc(b1-2)Man(a1-6)]Man(b1-4)GlcNAc(b1-4)[Fuc(a1-6)]GlcNAc
# Method in brief: (§1)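 The binding signal is a Z-score computed within each array. Data were drawn from 3228 arrays in the Consortium for Functional Glycomics database, restricted to those with a known protein sequence. Scores were averaged over arrays of the same protein sequence at different concentrations or buffers, and over linkers, and negative values can be taken as non-binding.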
# [2] = target: Gal(b1-4)GlcNAc(b1-3)Gal(b1-4)GlcNAc(b1-2)[Gal(b1-4)GlcNAc(b1-3)Gal(b1-4)GlcNAc(b1-6)]Man(a1-6)[Gal(b1-4)GlcNAc(b1-3)Gal(b1-4)GlcNAc(b1-2)Man(a1-3)]Man(b1-4)GlcNAc(b1-4)GlcNAc
# Method in brief: as §1
# [3] = target: Gal(b1-4)GlcNAc(b1-3)Gal(b1-4)GlcNAc(b1-2)[Gal(b1-4)GlcNAc(b1-3)Gal(b1-4)GlcNAc(b1-6)]Man(a1-6)[Gal(b1-4)GlcNAc(b1-3)Gal(b1-4)GlcNAc(b1-2)Man(a1-3)]Man(b1-4)GlcNAc(b1-4)[Fuc(a1-6)]GlcNAc
# Method in brief: as §1
# [4] = target: Gal(b1-4)GlcNAc(b1-3)Gal(b1-4)GlcNAc(b1-3)Gal(b1-4)GlcNAc
# Method in brief: as §1
# [5] = target: Gal(b1-4)GlcNAc(b1-3)Gal(b1-4)GlcNAc(b1-3)Gal(b1-4)GlcNAc(b1-2)Man(a1-3)[Gal(b1-4)GlcNAc(b1-3)Gal(b1-4)GlcNAc(b1-3)Gal(b1-4)GlcNAc(b1-2)Man(a1-6)]Man(b1-4)GlcNAc(b1-4)GlcNAc
# Method in brief: as §1
# [6] = target: Gal(b1-4)GlcNAc(b1-3)Gal(b1-4)GlcNAc(b1-3)Gal(b1-4)GlcNAc(b1-2)Man(a1-3)[Gal(b1-4)GlcNAc(b1-3)Gal(b1-4)GlcNAc(b1-3)Gal(b1-4)GlcNAc(b1-2)Man(a1-6)]Man(b1-4)GlcNAc(b1-4)[Fuc(a1-6)]GlcNAc
# Method in brief: as §1
# [7] = target: Gal(b1-4)GlcNAc(b1-3)Gal(b1-4)GlcNAc(b1-3)Gal(b1-4)GlcNAc(b1-2)[Gal(b1-4)GlcNAc(b1-3)Gal(b1-4)GlcNAc(b1-3)Gal(b1-4)GlcNAc(b1-6)]Man(a1-6)[Gal(b1-4)GlcNAc(b1-3)Gal(b1-4)GlcNAc(b1-3)Gal(b1-4)GlcNAc(b1-2)Man(a1-3)]Man(b1-4)GlcNAc(b1-4)[Fuc(a1-6)]GlcNAc
# Method in brief: as §1
# [8] = target: Gal(b1-4)GlcNAc(b1-3)Gal(b1-4)GlcNAc(b1-3)Gal(b1-4)GlcNAc(b1-3)Gal(b1-4)GlcNAc(b1-2)Man(a1-3)[Gal(b1-4)GlcNAc(b1-3)Gal(b1-4)GlcNAc(b1-3)Gal(b1-4)GlcNAc(b1-3)Gal(b1-4)GlcNAc(b1-2)Man(a1-6)]Man(b1-4)GlcNAc(b1-4)GlcNAc
# Method in brief: as §1
# [9] = target: Gal(b1-4)GlcNAc(b1-3)Gal(b1-4)GlcNAc(b1-3)Gal(b1-4)GlcNAc(b1-3)Gal(b1-4)GlcNAc(b1-2)Man(a1-3)[Gal(b1-4)GlcNAc(b1-3)Gal(b1-4)GlcNAc(b1-3)Gal(b1-4)GlcNAc(b1-3)Gal(b1-4)GlcNAc(b1-2)Man(a1-6)]Man(b1-4)GlcNAc(b1-4)[Fuc(a1-6)]GlcNAc
# Method in brief: as §1
# [10] = target: Gal(b1-4)GlcNAc(b1-3)Gal(b1-4)GlcNAc(b1-3)Gal(b1-4)GlcNAc(b1-3)Gal(b1-4)GlcNAc(b1-2)[Gal(b1-4)GlcNAc(b1-3)Gal(b1-4)GlcNAc(b1-3)Gal(b1-4)GlcNAc(b1-3)Gal(b1-4)GlcNAc(b1-6)]Man(a1-6)[Gal(b1-4)GlcNAc(b1-3)Gal(b1-4)GlcNAc(b1-3)Gal(b1-4)GlcNAc(b1-3)Gal(b1-4)GlcNAc(b1-2)Man(a1-3)]Man(b1-4)GlcNAc(b1-4)[Fuc(a1-6)]GlcNAc
# Method in brief: as §1
# [11] = target: Gal(b1-4)GlcNAc(b1-3)Gal(b1-4)GlcNAc(b1-3)Gal(b1-4)GlcNAc(b1-3)Gal(b1-4)GlcNAc(b1-3)Gal(b1-4)GlcNAc(b1-2)Man(a1-3)[Gal(b1-4)GlcNAc(b1-3)Gal(b1-4)GlcNAc(b1-3)Gal(b1-4)GlcNAc(b1-3)Gal(b1-4)GlcNAc(b1-3)Gal(b1-4)GlcNAc(b1-2)Man(a1-6)]Man(b1-4)GlcNAc(b1-4)GlcNAc
# Method in brief: as §1
# [12] = target: Gal(b1-4)GlcNAc(b1-3)Gal(b1-4)GlcNAc(b1-3)Gal(b1-4)GlcNAc(b1-3)Gal(b1-4)GlcNAc(b1-3)Gal(b1-4)GlcNAc(b1-2)Man(a1-3)[Gal(b1-4)GlcNAc(b1-3)Gal(b1-4)GlcNAc(b1-3)Gal(b1-4)GlcNAc(b1-3)Gal(b1-4)GlcNAc(b1-3)Gal(b1-4)GlcNAc(b1-2)Man(a1-6)]Man(b1-4)GlcNAc(b1-4)[Fuc(a1-6)]GlcNAc
# Method in brief: as §1
# [13] = target: Gal(b1-4)GlcNAc(b1-3)Gal(b1-4)GlcNAc(b1-3)Gal(b1-4)GlcNAc(b1-3)Gal(b1-4)GlcNAc(b1-3)Gal(b1-4)GlcNAc(b1-2)[Gal(b1-4)GlcNAc(b1-3)Gal(b1-4)GlcNAc(b1-3)Gal(b1-4)GlcNAc(b1-3)Gal(b1-4)GlcNAc(b1-3)Gal(b1-4)GlcNAc(b1-6)]Man(a1-6)[Gal(b1-4)GlcNAc(b1-3)Gal(b1-4)GlcNAc(b1-3)Gal(b1-4)GlcNAc(b1-3)Gal(b1-4)GlcNAc(b1-3)Gal(b1-4)GlcNAc(b1-2)Man(a1-3)]Man(b1-4)GlcNAc(b1-4)[Fuc(a1-6)]GlcNAc
# Method in brief: as §1
# [14] = target: Gal(b1-4)GlcNAc(b1-3)Gal(b1-4)GlcNAc(b1-3)Gal(b1-4)GlcNAc(b1-3)Gal(b1-4)GlcNAc(b1-3)Gal(b1-4)GlcNAc(b1-3)Gal(b1-4)GlcNAc(b1-2)Man(a1-3)[Gal(b1-4)GlcNAc(b1-3)Gal(b1-4)GlcNAc(b1-3)Gal(b1-4)GlcNAc(b1-3)Gal(b1-4)GlcNAc(b1-3)Gal(b1-4)GlcNAc(b1-3)Gal(b1-4)GlcNAc(b1-2)Man(a1-6)]Man(b1-4)GlcNAc(b1-4)GlcNAc
# Method in brief: as §1
# [15] = target: Gal(b1-4)GlcNAc(b1-3)Gal(b1-4)GlcNAc(b1-3)GalNAc
# Method in brief: as §1
# [16] = target: Gal(b1-4)GlcNAc(b1-3)Gal(b1-4)GlcNAc(b1-3)[Gal(b1-4)GlcNAc(b1-3)Gal(b1-4)GlcNAc(b1-6)]GalNAc
# Method in brief: as §1
# [17] = target: Gal(b1-4)GlcNAc(b1-3)Gal(b1-4)GlcNAc(b1-6)[Gal(b1-3)]GalNAc
# Method in brief: as §1
# [18] = target: Gal(b1-4)GlcNAc(b1-3)Gal(b1-4)[Fuc(a1-3)]GlcNAc(b1-3)Gal(b1-4)[Fuc(a1-3)]GlcNAc
# Method in brief: as §1
# [19] = target: Gal(b1-4)GlcNAc(b1-3)GalNAc
# Method in brief: as §1
# [20] = target: Gal(b1-4)GlcNAc(b1-3)[Fuc(a1-3)GlcNAc(b1-6)]Gal(b1-4)Glc
# Method in brief: as §1
# [21] = target: Gal(b1-4)GlcNAc(b1-3)[Gal(b1-4)GlcNAc(b1-6)]Gal(b1-4)GlcNAc
# Method in brief: as §1
# [22] = target: Gal(b1-4)GlcNAc(b1-3)[GlcNAc(b1-6)]Gal(b1-4)GlcNAc
# Method in brief: as §1
binder,measurement,setting,value
"Cp ZmpB (Clostridium perfringens), Q0TR08 (protein) MNKRKIAAIILATMITNLSATTIDVLAQELNTKNNSKVEVSHDDESHQARVSKFDLYNSDKLDAYNQEFQVSRSNIKSINNNGGKYNSSTIDKAIDGNLETHWETGKPNDANFTNEVVVTFNEITNIDRIVYSARRDSARGKGFAKEFEIYASLKDEGDDFNLVSSGEYTESTRDLVEIKFNPTDFKRLKFKFKKADQNWASAAEFMFYKEDKLNEKFNGLFTDSSMNKVSEEFNTLEKLNAFENELKDHPIYDLYKEGLNNARAILTETSENPTKATLGQITYNLNDDYNNQYRMPYKNIKAIKNNGRHYAAQNIEKAIDNDVNTYWETGTLNSSSFNNEVEVEFNDLVTLDRIVYGSRQSDLKGFAEEVYIYASRTSKGDTYKLVATGAHEATKGLVEAKFEPTEFKRVKFKFKKSKQNSATLNELMFYKPDEVYSSIPKLFTDGTMSELSEEFNSLEKINAFKEKAKNHPLYNDFNETIELAESLISNPRKEDVLELEMRGDSISEAKKRKVWNFQDWQITGLSARAGDKITVYVDVAEGDPTPTLLYKQSLTQHGGATSFQLKPGKNEITIPEINYESNGIPKDVIQGGDLFFTNYKSDSQKRAPKVRIEGASKYPVFILGKSDENEVMKELEAYVEKIKAEPKTTPNIFAVSSNKSLEFVQATYALDWYKKNNKTPKYTAEQWDQYIADAMGFWGFDNSKDVNSDFNFRIMPMVKNLSGGAFMNAGNGVIGIRPGNQDAILAANKGWGVAHELGHNFDTGGRTIVEVTNNMMPLFFESKYKTKTRITDQNIWENNTYPKVGLDDYSNNELYNKADSTHLAQLAPLWQLYLYDNTFYGKFERQFRERDFGNKNREDIYKSWVVAASDAMELDLTEFFARHGIRVDDKVKEDLAKYPKPDKKIYYLNDLAMNYKGDGFTENAKVSVSTSGSNGNIKLSFSVDDENKDNILGYEIRRDGKYVGFTSNDSFVDTKSNLDEDGVYVVTPYDRKLNTLNPIEVNALQPTLSVNPVITLALGEEFNEEEYIVAKDIKGNSLSESVKVKSSNVNTSKVGEYEVLYSLEDSKGNEYTKTSKVNVVSRKEYMSDLTPKQSSNGWGTVRKDKSISGGVIGLTRDGDFVDYNKGLGLHSNAEYVYDLEGKDYDYFESYVGVDKAMSSRPASSVIFKVLVDGEEKFNSGVMRSTTPQKYVKVDVKNAKELKLIVNDAGDGDSSDHASFGDAKLATLSSKPIIKGENLAYSMDEKVDLMKGITATDIEDGNITSKVQIKSSDFVEGKSGIFTVVYSVTDSDGLTSECSRTIAVTDKETQLSDLNWKSATIGSGSVRKDRAVSGNQIRLLNEDNSVETFAKGIGTHSYSEIVYNSEGYDIFDTWVGIDRHVADKKVSSVKFKVYVDGELKAETDVMRIDTPKKRLVVDVRNSKEIKLVVDVADNGNNWDHADWADAKFRNLAEYDASELNKAIEEAKKLDLNNYTEESSEALKNAISKGEEALLSKDKETINSALEELNKEMNSLVKVDLNAVINIPDKYLLKSIQNQLNKTGDITLGDMYSLTTLTLSGVEDLTGLENAKNLETLNMDYNEVKDLRPLSKLKKLNTLNAQEQFIAAGELKPSNGKVIGDSKVYNREGKNVAKTIRVVDKNGNTILEQDAKDEFTINTKDLSSGLYGVHVLFEDEGFSGVMFYLFNV",glycan array binding signal (z-score),[1],0.099
same,glycan array binding signal (z-score),[2],0.278
same,glycan array binding signal (z-score),[3],-0.328
same,glycan array binding signal (z-score),[4],-0.425
same,glycan array binding signal (z-score),[5],0.247
same,glycan array binding signal (z-score),[6],0.142
same,glycan array binding signal (z-score),[7],-0.102
same,glycan array binding signal (z-score),[8],0.116
same,glycan array binding signal (z-score),[9],0.237
same,glycan array binding signal (z-score),[10],-0.093
same,glycan array binding signal (z-score),[11],-0.374
same,glycan array binding signal (z-score),[12],0.666
same,glycan array binding signal (z-score),[13],3.56
same,glycan array binding signal (z-score),[14],0.497
same,glycan array binding signal (z-score),[15],-0.02
same,glycan array binding signal (z-score),[16],-0.373
same,glycan array binding signal (z-score),[17],0.206
same,glycan array binding signal (z-score),[18],-0.332
same,glycan array binding signal (z-score),[19],-0.387
same,glycan array binding signal (z-score),[20],-0.391
same,glycan array binding signal (z-score),[21],-0.301
same,glycan array binding signal (z-score),[22],0.178
